Experimental data: PubChem BioAssay AID652104 (National Center for Advancing Translational Sciences (NCATS), 2013)
The whole screen tested about 410,000 compounds, of which about 7,200 (1.8%) were called active. The inconclusive results got no clear call from the source; some entries with a clear call stand among them for comparison. Calls come from the whole dose curve; as a rule, active = well fitted activation curve with a large enough effect; inconclusive = small, poorly fitted or top-dose-only effect, or another doubt; inactive = no such curve, though single readings can be large or run the other way. Potencies of inconclusive entries are left out as doubtful fits.

Experiment: qHTS of TDP-43 Inhibitors; note: nearly all actives have a fitted effect of over 50% in size; for growth rescue (activation): % of control where 0% means no effect
Details: TDP-43 expressing yeast growth rescue, BacTiter-Glo, 24 h; growth rescue (activation): at 46.1 µM (top of the series) unless noted
How it was run: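 Yeast cells expressing TDP-43 under galactose induction are exposed to compounds for 24 hr at 30 deg C. BacTiter-Glo luminescence measures growth, so protective compounds score as activators.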
Potency is the fitted concentration of half-maximal effect; tags give direction and shape of the fitted curve.

Q: With `Fc1ccc(-c2noc3ncnc(N4CCCCC4)c23)cc1` as the compound, how does the Potency read?
A: inactive

Q: With `N#Cc1ccccc1S(=O)(=O)N1CCC(Oc2ccc(-n3cnnn3)cc2)CC1` as the compound, how does the Potency read?
A: inconclusive [activator, partial curve]

Q: With `CC(C)c1ccc(NC(=O)CCc2ccccc2)cc1` as the compound, how does the Potency read?
A: inconclusive [activator, partial curve]

Q: Which Potency does the source give for `CCc1c(C)nc2nncn2c1Nc1cccc(C)c1` here?
A: inconclusive [activator, partial curve]

Q: Which Potency does the source give for `COc1ccc(Cl)cc1-c1cc(C(=O)NCc2cccs2)[nH]n1` here?
A: active: 11.2 µM

Q: With `COc1ccccc1CNC(=O)CCCn1c(=O)c2cccn2c2ccccc21` as the compound, how does the Potency read?
A: inconclusive [activator, partial curve, poor fit]

Q: For `CCOC(=O)c1cc(-c2ccccc2)sc1NC(=O)CC(C)C`, which Potency is on record?
A: inactive

Q: For `CCOC(=O)c1c(C)oc2ncnc(N3CCN(c4cccc(Cl)c4)CC3)c12`, which Potency is on record?
A: inconclusive [activator, partial curve]

Q: With `COC(=O)c1ccc(COc2ccc(/C=N/N3CCN(C)CC3)cc2)cc1` as the compound, how does the Potency read?
A: inconclusive [activator, partial curve]

Q: For `COc1cnn(-c2cccc(C(F)(F)F)c2)c(=O)c1Cl`, which Potency is on record?
A: inconclusive [activator, single point]

Q: With `Cc1noc(C)c1COc1cccc(C(=O)OC(C)C#N)c1` (stereo not given) as the compound, how does the Potency read?
A: inconclusive [activator, partial curve]

Q: Which Potency does the source give for `Cc1cc(OCC(=O)NNC(=S)NC(=O)c2ccc(Br)o2)ccc1Cl` here?
A: active: 20 µM

Q: Which Potency does the source give for `C=CCOc1ccc(/C=C/C(=O)OCC(=O)NCc2ccco2)cc1` here?
A: inconclusive [activator, single point]

Q: With `O=C(C#Cc1ccccc1)c1ccco1` as the compound, how does the growth rescue (activation) read?
A: inconclusive: -92.3% [activator]

Q: Which Potency does the source give for `O=C1CCC/C1=C/Nc1ccc2c(c1)OCO2` here?
A: inactive

Q: With `Cc1ccccc1OC(C)C(=O)Nc1ccc2c(c1)OCO2` (stereo not given) as the compound, how does the Potency read?
A: inconclusive [activator, partial curve]

Q: Which Potency does the source give for `CCOC(=O)c1cnc(-c2ccc(C(F)(F)F)cn2)[nH]c1=O` here?
A: inconclusive [activator, single point]

Q: For `O=C(c1ccc(Cl)cc1)n1nc(-c2ccco2)nc1NCc1cccs1`, which Potency is on record?
A: inactive

Q: With `CN(C)c1ccccc1C(=O)c1ccccc1N(C)C` as the compound, how does the Potency read?
A: inconclusive [activator, partial curve]

Q: Which Potency does the source give for `COc1ccc(Oc2ncccc2[N+](=O)[O-])cc1` here?
A: inactive

Q: For `Cc1ccc(CNC(=O)Cn2c(=O)n(-c3ccccc3)c(=O)c3c2c2cc(C)ccc2n3C)cc1`, which Potency is on record?
A: inconclusive [activator, full curve, poor fit]

Q: With `CCN(CC)c1ncnc2scc(C3COc4ccccc4O3)c12` (stereo not given) as the compound, how does the Potency read?
A: active: 17.8 µM

Q: With `COC(=O)[C@]12CCCCC=C1N(CCc1ccc(OC)c(OC)c1)C(=O)[C@H](CC(=O)N1CCOCC1)C2` as the compound, how does the Potency read?
A: inactive

Q: Which Potency does the source give for `COc1ccc(NC(=O)c2csc(Cc3ccccc3)n2)cc1` here?
A: inconclusive [activator, partial curve, poor fit]

Q: Which Potency does the source give for `Cc1ccc(NC(=O)CCSc2nc(-c3ccc4c(c3)OCO4)cc(C(F)(F)F)n2)cc1` here?
A: inactive

Q: For `O=C(Nc1ccccc1N1CCOCC1)c1ccccc1NS(=O)(=O)c1ccc(F)cc1`, which Potency is on record?
A: inconclusive [activator, single point]

Q: With `Cn1cccc1/C=C1\SC(=S)N(NC(=O)c2ccccc2)C1=O` as the compound, how does the Potency read?
A: inconclusive [activator, partial curve]

Q: For `O=C(COC(=O)c1ccccc1Br)NC1CCCCCCC1`, which Potency is on record?
A: inconclusive [activator, single point]

Q: Which Potency does the source give for `Cc1cccc(NC(=S)NCCc2c[nH]c3ccccc23)c1` here?
A: inconclusive [activator, single point]

Q: Which Potency does the source give for `Cc1ncc([N+](=O)[O-])n1CCOC(=O)c1ccc(Cl)cc1Cl` here?
A: inconclusive [activator, partial curve]

Q: Which Potency does the source give for `O=C(O)CCc1ccc(-c2ccccc2)n1-c1cccc(Br)c1` here?
A: inconclusive [activator, single point]

Q: With `CCn1c(=N)c(S(=O)(=O)c2ccccc2)cc2c(=O)n3ccccc3nc21` as the compound, how does the Potency read?
A: inactive

Q: With `N#Cc1cn(CC(=O)N2CCCc3ccccc32)c2ccccc12` as the compound, how does the Potency read?
A: inconclusive [activator, partial curve]

Q: For `CC(C)(C)OC(=O)N[C@@H](Cc1c[nH]c2ccccc12)c1nnc(SCC(N)=O)o1`, which Potency is on record?
A: inconclusive [activator, partial curve, poor fit]

Q: For `N#CCC(CNc1ncc(C(F)(F)F)cc1Cl)OC(=O)c1c(F)cccc1F` (stereo not given), which Potency is on record?
A: inconclusive [activator, single point]

Q: For `CCOc1ccccc1NC(=O)N1CCCn2nc(C)cc21`, which Potency is on record?
A: inconclusive [activator, partial curve]

Q: With `Cc1ccc(-n2ncc3c(N(CCO)Cc4ccccc4)ncnc32)cc1` as the compound, how does the Potency read?
A: inconclusive [activator, single point]

Q: For `C/C=C/c1cc(OC)c2c(c1)[C@H](C)[C@@H](c1ccc(O)c(OC)c1)O2`, which Potency is on record?
A: inactive

Q: Which Potency does the source give for `CNC(=O)COC(=O)c1cc(SC)ccc1Cl` here?
A: inconclusive [activator, partial curve]

Q: With `Cc1ccc(-n2ncc3c(NCCc4ccccc4)ncnc32)cc1C` as the compound, how does the Potency read?
A: inconclusive [activator, partial curve]

Q: With `O=C(Nc1cccnc1)c1ccc(COc2ccccc2Br)cc1` as the compound, how does the Potency read?
A: inconclusive [activator, single point]

Q: With `COc1ccc2c(c1)CC/C2=N\OC(=O)c1ccccc1C` as the compound, how does the Potency read?
A: inconclusive [activator, full curve]

Q: Which Potency does the source give for `COc1ccc(-c2cc3nc(-c4ccccc4)cc(N4CCCC(O)C4)n3n2)cc1` (stereo not given) here?
A: inconclusive [activator, partial curve]

Q: Which Potency does the source give for `CCn1nccc1C(=O)Nc1ccc(Cl)c(Cl)c1` here?
A: active: 17.8 µM

Q: For `O=C(NCc1ccccn1)c1c(-c2ccccc2)sc2ccccc12`, which Potency is on record?
A: inconclusive [activator, partial curve]

Q: Which Potency does the source give for `Cc1cccc(N2CCN(C(=O)Cc3cn(C)c4ccccc34)CC2)c1C` here?
A: inconclusive [activator, single point]

Q: With `O=C(NCCCN1CCOCC1)c1ccc2c(c1)N(Cc1ccccc1)C(=O)c1ccccc1S2` as the compound, how does the Potency read?
A: inconclusive [activator, full curve, poor fit]

Q: Which growth rescue (activation) does the source give for `O=C1C=CC(=O)N1c1ccc2ccccc2c1` here?
A: inconclusive: -94.2% [activator]

Q: Which Potency does the source give for `O=C(CN1CCCN(Cc2ccccc2Cl)S1(=O)=O)Nc1ccc2c(c1)OCCO2` here?
A: inconclusive [activator, partial curve]

Q: For `CCOC(=O)c1cc(-c2ccc(F)cc2)n(CC(=O)NC2CCCCC2)c1C`, which Potency is on record?
A: inactive

Q: Which Potency does the source give for `O=C(NCCCn1ncc2ccccc21)c1cc(COc2c(F)cccc2F)on1` here?
A: inconclusive [activator, single point]

Q: Which growth rescue (activation) does the source give for `O=C(Cc1ccccc1F)Nc1ccc(SC(F)F)cc1` here?
A: inactive: -13.2% [at 0.397 µM]

Q: For `CCOC(=O)[C@]12CCCC=C1N(Cc1ccc(Cl)cc1Cl)C(=O)[C@H](CC(=O)N1CCN(C(=O)c3ccco3)CC1)C2`, which Potency is on record?
A: active: 15.8 µM

Q: For `COc1ccccc1N1CCN(C(=O)c2cc(=O)c3c(C)cc(C)cc3o2)CC1`, which Potency is on record?
A: active: 25.1 µM

Q: With `N#Cc1cnc(Nc2ccc(F)cc2)nc1N` as the compound, how does the Potency read?
A: inconclusive [activator, partial curve]

Q: For `O=C(Cc1cccs1)NC1CC(=O)N(c2ccccc2)C1` (stereo not given), which Potency is on record?
A: inactive

Q: With `CN1CCC(=O)N([C@H](CO)Cc2ccccc2)CC1` as the compound, how does the Potency read?
A: inconclusive [activator, single point]

Q: With `CCn1c(=O)c2sccc2n(Cc2ccccc2)c1=O` as the compound, how does the Potency read?
A: inconclusive [activator, partial curve]

Q: For `CCN(CC)c1ccc2cc(-c3nnc(-c4ccncc4)o3)c(=O)oc2c1`, which Potency is on record?
A: inactive

Q: For `CC(C)N1CC(C(=O)Nc2ccc(Cl)cc2Cl)CC1=O` (stereo not given), which Potency is on record?
A: inconclusive [activator, partial curve, poor fit]

Q: For `CN1CC(c2ccc(C#N)cc2)C2(COc3ccccc3C2=O)C12C(=O)Nc1ccccc12` (stereo not given), which Potency is on record?
A: inconclusive [activator, single point]

Q: For `CC(C)NC(=S)N1CCCN(c2ncccc2[N+](=O)[O-])CC1`, which Potency is on record?
A: inconclusive [activator, single point]

Q: For `CC(OC(=O)c1ccc2ncsc2c1)C(=O)N(C)C1CCCCC1` (stereo not given), which Potency is on record?
A: inconclusive [activator, partial curve]

Q: For `COc1ccc(/C=C(\C#N)C(=O)NCC2CCCO2)cc1OC` (stereo not given), which Potency is on record?
A: inconclusive [activator, single point]

Q: With `Oc1cccc(Nc2ccccc2)c1` as the compound, how does the Potency read?
A: active: 12.6 µM

Q: Which Potency does the source give for `COC(=O)C1=C(C)N(Cc2ccco2)C(=O)N[C@H]1c1cccc(C(F)(F)F)c1` here?
A: inconclusive [activator, partial curve]

Q: With `CN(CC(=O)Nc1ccccc1Cl)C(=O)CCSc1ccc(F)cc1` as the compound, how does the Potency read?
A: inconclusive [activator, full curve, poor fit]

Q: Which Potency does the source give for `CCCCC(=O)NS(=O)(=O)c1ccc(N=NN2CCCCC2)cc1` here?
A: inconclusive [activator, single point]

Q: With `Oc1cccc2ccc(Nc3ccccn3)nc12` as the compound, how does the Potency read?
A: inconclusive [activator, partial curve]

Q: For `NCC(=O)NCC(=O)NC[C@H]1O[C@@H](n2cnc3c(N)ncnc32)[C@H](O)[C@@H]1O`, which Potency is on record?
A: inconclusive [activator, single point]
